Source: patent US20240076343A1 (CEPHALON, published 2024)
Substitutions are numbered along the chain they refer to. Numbers in names are those of the source.

B1: A2-hIgG4-df-hIL-2 (D20A/R38E) (other)
heavy: DVQLVESGGGLVQPGGSLRLSCAASGFTFDISAMSWVRQAPGKGLEWVSTISGSAYSTYYADSVKGRFTISRDNSKSTLYLQMNSLRAEDTAVYYCAREIFSDYWGLGTLVTVSSASTKGPSVFPLAPCSRSTSESTAALGCLVKDYFPEPVTVSWNSGALTSGVHTFPAVLQSSGLYSLSSVVTVPSSSLGTKTYTCNVDHKPSNTKVDKRV[not shown - about 350 residues with a human IgG4 Fc and changes]
light: QSVLTQPPSASGTPGQRVTISCSGSTSNIGRESVYWYQQLPGTAPKLLIYSNVQRPSGAPNRFSGSKSGTSASLAISGLQSEDEADYYCGTWDDSLNGWVFGGGTKLTVLGQPKAAPSVTLFPPSSEELQANKATLVCLISDFYPGAVTVAWKADSSPVKAGVETTTPSKQSNNKYAASSYLSLTPEQWKSHRSYSCQVTHEGSTVEKTVAPTECS
B2: OMC.1.B6-hIgG4-L6-hIL-2 (D20A/R38E) (other)
heavy: EVQLLESGGGLVQPGGSLRLSCAASGFTFSSNYMSWVRQAPGKGLEWVSAISSSGGTIFYADSVKGRFTISRDNSKNTLYLQMNSLRAEDTAVYYCAKHKWNAVYYDGMDVWGQGTTVTVSSASTKGPSVFPLAPCSRSTSESTAALGCLVKDYFPEPVTVSWNSGALTSGVHTFPAVLQSSGLYSLSSVVTVPSSSLGTKTYTCNVDHKPSNTKVDKRV[not shown - about 350 residues with a human IgG4 Fc]
light: QSVLTQPPSASGTPGQRVTISCSGSNSNIGRNLVNWYQQLPGTAPKLLIYTIDQRPSGVPDRFSGSKSGTSASLVISGLQSEDEADYYCAAWDGSLNAWVFGGGTKLTVLGQPKAAPSVTLFPPSSEELQANKATLVCLISDFYPGAVTVAWKADSSPVKAGVETTTPSKQSNNKYAASSYLSLTPEQWKSHRSYSCQVTHEGSTVEKTVAPTECS
B3: OMC.1.D6-hIgG4-L6-hIL-2 (D20A/R38E) (other)
heavy: EVQLLESGGGLVQPGGSLRLSCAASGFTFSDYYMSWVRQAPGKGLEWVSAISSSGGTIFYADSVKGRFIISRDNSKNTLYLQMNSLRAEDTAVYYCAKHKWNDVYYDAMDVWGQGTTVTVSSASTKGPSVFPLAPCSRSTSESTAALGCLVKDYFPEPVTVSWNSGALTSGVHTFPAVLQSSGLYSLSSVVTVPSSSLGTKTYTCNVDHKPSNTKVDKRV[not shown - about 350 residues with a human IgG4 Fc]
light: B2 light with I52V, V75A, Q80A, G94S, A98S
B4: G12-hIgG4-df-hIL-2 (D20A/R38E) (other)
heavy: DSLVESGGGLVQPGGSLRLSCAASGFTFDISAMSWVRQAPGKGLEWVSTISGSAYSTYYADSVKGRFTISRDNSKSTLYLQMNSLRAEDTAVYYCAREIFSDYWGLGTLVTVSSASTKGPSVFPLAPCSRSTSESTAALGCLVKDYFPEPVTVSWNSGALTSGVHTFPAVLQSSGLYSLSSVVTVPSSSLGTKTYTCNVDHKPSNTKVDKRV[not shown - about 350 residues with a human IgG4 Fc]
light: B1 light with S51L, V53S, A59V, N61D, E84V
B5: OMC.1.B6-hIgG4-L6-hIL-2 (D20A/R38E) (other)
heavy: EVQLLESGGGLVQPGGSLRLSCAASGFTFSSNYMSWVRQAPGKGLEWVSAISSSGGTIFYADSVKGRFTISRDNSKNTLYLQMNSLRAEDTAVYYCAKHKWNAVYYDGMDVWGQGTTVTVSSASTKGPSVFPLAPCSRSTSESTAALGCLVKDYFPEPVTVSWNSGALTSGVHTFPAVLQSSGLYSLSSVVTVPSSSLGTKTYTCNVDHKPSNTKVDKRV[not shown - about 350 residues with a human IgG4 Fc]
light: B2 light
notes: anti-hPD-1 IgG4 with attenuated hIL-2 fused to the heavy chain C-terminus
B6: OMC.1.D6-hIgG4-L6-hIL-2 (D20A/R38E) (other)
heavy: EVQLLESGGGLVQPGGSLRLSCAASGFTFSDYYMSWVRQAPGKGLEWVSAISSSGGTIFYADSVKGRFIISRDNSKNTLYLQMNSLRAEDTAVYYCAKHKWNDVYYDAMDVWGQGTTVTVSSASTKGPSVFPLAPCSRSTSESTAALGCLVKDYFPEPVTVSWNSGALTSGVHTFPAVLQSSGLYSLSSVVTVPSSSLGTKTYTCNVDHKPSNTKVDKRV[not shown - about 350 residues with a human IgG4 Fc]
light: B2 light with I52V, V75A, Q80A, G94S, A98S
notes: as for B5
B7: A2-hIgG4-df-hIL-2 (D20A/R38E) (other)
heavy: DVQLVESGGGLVQPGGSLRLSCAASGFTFDISAMSWVRQAPGKGLEWVSTISGSAYSTYYADSVKGRFTISRDNSKSTLYLQMNSLRAEDTAVYYCAREIFSDYWGLGTLVTVSSASTKGPSVFPLAPCSRSTSESTAALGCLVKDYFPEPVTVSWNSGALTSGVHTFPAVLQSSGLYSLSSVVTVPSSSLGTKTYTCNVDHKPSNTKVDKRV[not shown - about 350 residues with a human IgG4 Fc and changes]
light: B1 light
notes: as for B5
B8: D12-hIgG4-df-hIL-2 (D20A/R38E) (other)
heavy: DVQLVESGGGLVQPGGSLRLSCAASGFTFDISAMSWVRQAPGKGLEWVSTISGSAYSTYYADSVKGRFTISRDNSKSTLYLQMNSLRAEDTAVYYCAREIFSDYWGLGTLVTVSSASTKGPSVFPLAPCSRSTSESTAALGCLVKDYFPEPVTVSWNSGALTSGVHTFPAVLQSSGLYSLSSVVTVPSSSLGTKTYTCNVDHKPSNTKVDKRV[not shown - about 350 residues with a human IgG4 Fc]
light: B1 light with S25N, A59V, N61D
notes: as for B5
B9: G12-hIgG4-df-hIL-2 (D20A/R38E) (other)
heavy: DSLVESGGGLVQPGGSLRLSCAASGFTFDISAMSWVRQAPGKGLEWVSTISGSAYSTYYADSVKGRFTISRDNSKSTLYLQMNSLRAEDTAVYYCAREIFSDYWGLGTLVTVSSASTKGPSVFPLAPCSRSTSESTAALGCLVKDYFPEPVTVSWNSGALTSGVHTFPAVLQSSGLYSLSSVVTVPSSSLGTKTYTCNVDHKPSNTKVDKRV[not shown - about 350 residues with a human IgG4 Fc]
light: B1 light with S51L, V53S, A59V, N61D, E84V
notes: as for B5

Key:
[1] = target: T1, human PD-1 (amino acids 1-185) on transfected Jurkat cells (human, UniProt Q15116 fragment); assay: flow cytometry on Jurkat cells expressing hPD-1; cells pre-incubated with 10 µM anti-hPD-1 #1-mIgG2b-N297A
T1 construct: also called hPD-1; Jurkat+hPD-1 cell line

[2] = target: T1, human PD-1 (amino acids 1-185) on …; assay: flow cytometry on Jurkat cells expressing hPD-1; cells pre-incubated with 10 µM anti-hPD-1 #2-mIgG2b-N297A
[3] = target: T1, human PD-1 (amino acids 1-185) on …; assay: flow cytometry, Jurkat+hPD-1 cells
[4] = target: T1, human PD-1 (amino acids 1-185) on …; assay: flow cytometry on Jurkat cells expressing hPD-1; no competitor
[5] = target: T2, human PD-1 on Jurkat cells (Jurkat+hPD-1) (human, UniProt Q15116 fragment); assay: flow cytometry on Jurkat cells expressing hPD-1
T2 construct: extracellular domain and a portion of the transmembrane domain, stably expressed on Jurkat cells

Row | Binder | fold increase in EC50 against the anti-hPD-1 antibody without the attenuated hIL-2 moiety [3] [fold] | EC50 [5] [nM] | further results
1 | B1 | < 2 | – | EC50 (read off the curve) [1]: ~7 nM; EC50 (read off the curve) [2]: ~10 nM; EC50 (read off the curve) [4]: ~6 nM
2 | B2 | < 2 | – | –
3 | B3 | < 2 | – | –
4 | B4 | < 2 | – | –
5 | B5 | – | 5.63 | –
6 | B6 | – | 8.87 | –
7 | B7 | – | 10.7 | –
8 | B8 | – | 17.1 | –
9 | B9 | – | 7.58 | –
